The values below come from PubChem BioAssay (EPA / NIEHS).

The structures appear in SMILES notation. For part of these data: What follows is the remainder of the data, with few or none of the hits. Results filed as inconclusive are left out. Where a structure was tested more than once in an assay, its records may differ in their call. The entries are a selection whose mix differs from that of the whole data set. Calls of active or inactive are those of the source. The calls were made as follows, unless noted: active = hit-call score of the fitted dose curve at least 0.9, where 1 is the maximum; inconclusive = response in the unintended direction; inactive = score below 0.9.

In assay [1] the target is human RAR-related Orphan Receptor beta (RORb), RORB (gene 6096) (UniProt Q92753). Briefly: ATG_RORb_TRANS: Attagene TRANS-FACTORIAL HepG2 Assay for human RAR-related Orphan Receptor beta (RORb) (AID 2283010). In a few lines: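 Read-out is reporter mRNA induction, quantified by RT-PCR with fluorescent capillary electrophoresis, 24 h post-dose in transiently transfected HepG2 expressing exogenous NR-Gal4 chimera. Activity fitted upward versus DMSO.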

Assay [2] concerns the target human Retinoid X Receptor beta (RXRb), RXRB (gene 6257) (UniProt P28702). Briefly: ATG_RXRb_TRANS: Attagene TRANS-FACTORIAL HepG2 Assay for human Retinoid X Receptor beta (RXRb) (AID 2283013). In a few lines:
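Readout is reporter transcript induction after 24 h dosing. It is measured by RT-PCR of total RNA followed by fluorescent capillary electrophoresis. HepG2 liver cells carry transfected multiple reporter units driven by an exogenous RXRb-Gal4 fusion; activity is relative to DMSO.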

Assay [3] deals with human Thyroid Receptor alpha (THRa1), THRA (gene 7067) (UniProt P10827). Nature of the assay: ATG_THRa1_TRANS: Attagene TRANS-FACTORIAL HepG2 Assay for human Thyroid Receptor alpha (THRa1) (AID 2283014). In outline: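 Transient HepG2 transfection, NR-Gal4 chimera driving GAL4-UAS reporters; 24 h compound exposure; total RNA, oligo(dT) RT, PCR, fluorescent primer extension, capillary electrophoresis. Upward direction vs DMSO control.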

Assay [4] has as its target Nucleoli Translocation, AR (gene 367) (UniProt P10275). Briefly: UPITT_HCI_U2OS_AR_TIF2_Nucleoli_Antagonist: University of Pittsburgh U2OS Androgen Receptor-Transcriptional Intermediary Factor 2 (AR-TIF2) Antagonism High Content Imaging Assay for Nucleoli Translocation (AID 2283997). In a few lines: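 An antagonist-mode imaging screen: engineered U2OS (AR-RFP, TIF2-GFP) exposed to 20 uM compound, 0.2% DMSO. Activity reflects nucleolar red fluorescence change relative to DHT baseline.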

The target of assay [5] is human RAR-related Orphan Receptor gamma (RORg), RORC (gene 6097) (UniProt P51449). Nature of the assay: ATG_RORg_TRANS: Attagene TRANS-FACTORIAL HepG2 Assay for human RAR-related Orphan Receptor gamma (RORg) (AID 2283011). In a few lines:
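Transient MRTU transfection of HepG2 (TRANS format, exogenous NR-Gal4 chimera). 24 h dosing. Total RNA → oligo(dT) RT → PCR → 6-FAM labelling → HpaI cut → CE. Gain vs DMSO.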

Assay [6] addresses Cellular tumor antigen p53 (Homo sapiens) (UniProt P04637). Briefly: TOX21_p53_BLA_p3_ratio: Tox21 HCT-116 p53 Agonism Beta-lactamase Assay, Ratio, Phase 3 (AID 2283596). In a few lines: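 Cells were seeded at 4000/well, rested 5 h at 37C, then dosed with DMSO compound solutions (217-fold dilution) for 16 h. CCF4-AM substrate was loaded for 2 h at room temperature, and the 460/530 nm emission ratio was fitted for gain of signal versus DMSO.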

Assay [7] addresses Nuclear receptor subfamily 1 group I member 2 (Homo sapiens) (UniProt O75469). Briefly: ATG_PXR_TRANS: Attagene TRANS-FACTORIAL HepG2 Assay for human Pregnane X Receptor (PXR) (AID 2283008). In a few lines: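 Transactivation by exogenous PXR–GAL4 fusion measured as reporter transcript induction after 24 h compound treatment of transfected human HepG2 cells. Read-out via RT-PCR and capillary electrophoresis of labelled fragments, fitted upward relative to DMSO.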

Assay [8] addresses human Retinoic Acid Receptor gamma (RARg), RARG (gene 5916) (UniProt P13631). Nature of the assay: ATG_RARg_TRANS: Attagene TRANS-FACTORIAL HepG2 Assay for human Retinoic Acid Receptor gamma (RARg) (AID 2283009). In a few lines:
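Transactivation of exogenous RARg-Gal4 fusion measured as reporter transcript induction after 24 h in transfected HepG2 cells. RNA reverse-transcribed, amplified, fluorescently labeled and resolved by capillary electrophoresis; increase relative to DMSO.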

Assay [9] can be described thus: ACEA_AR_agonist_AUC_viability: ACEA Biosciences xCELLigence Real-Time Cell Analysis on Androgen Receptor Agonism for Viability (AID 2283775). In a few lines: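 22Rv1 cells; impedance growth kinetics; 8-pt 1:4 dilutions from 100 uM top final, ≤0.5% DMSO; n = 2; 80 h read; AUC viability, loss-of-signal vs DMSO.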
The nature of assay [10]: BSK_CASM3C_Proliferation: Cell Proliferation Assessment in the BioMAP Diversity Plus: CASM3C Assay (AID 2283047; active = hit-call score of the fitted dose curve at least 0.9, where 1 is the maximum; inactive = score below 0.9;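 also: sulforhodamine B total protein stain as relative cell number at 560 nm; sub-confluent cells exposed 48 h before staining; fitted both ways against DMSO so gain or loss of cell number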). Particulars: primary human coronary artery smooth muscle cells.
For assay [11], the target named is Estrogen receptor beta (Homo sapiens) (UniProt Q92731). Nature of the assay: OT_ER_ERbERb_0480: Odyssey Thera (OT) 8-hour HEK293T Protein-Complementation Assay for Estrogen Receptor-beta/-beta Homodimer (AID 2283357).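 Also: active means signal gain over DMSO baseline.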 In a few lines: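 Fluorescence gain from complemented reporter fragments on ER-beta LBD homodimer in HEK293T was quantified against DMSO controls after 8 h treatment, fixation in 4% formaldehyde and Draq5 staining.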

Read-out in assay [12]: catalase (CAT), CAT (gene 847)
Briefly: LTEA_HepaRG_CAT: Life Technologies and Expression Analysis (LTEA) Assay for catalase (CAT) using HepaRG (AID 2283452; active = hit-call score of the fitted dose curve at least 0.9, where 1 is the maximum; inactive = score below 0.9). Particulars: actives raise or lower the signal; mRNA level, 48 h. In a few lines: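 Differentiated HepaRG cells in serum-free induction medium were dosed 48 h in duplicate, eight half-log concentrations from 100 uM in 0.5% DMSO. Transcript measured by TaqMan qRT-PCR, normalised to ACTB/GAPDH/POLR2A, fitted bidirectionally against DMSO.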

For assay [13], the system named is chicken Androgen Receptor (AR), gene 422165. Briefly: ATG_chAR_XSP2: Attagene TRANS-FACTORIAL Multi-Species (XSP2) HepG2 Assay for chicken Androgen Receptor (AR) (AID 2283819).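 Also: hits raise reporter mRNA above DMSO so potency is for activation.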 In a few lines:
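Readout is reporter mRNA induction via RT-PCR/capillary electrophoresis after 24 h chemical exposure, positive direction relative to DMSO. Transiently transfected HepG2 express chimeric chicken AR–GAL4; AR stimulated by 3 nM 6-alpha-fluorotestosterone and 1.5 nM norgestrel.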

Assay [14] has as its system frog Estrogen Receptor (ER), gene 398734. Nature of the assay: ATG_frER1_XSP2: Attagene TRANS-FACTORIAL Multi-Species (XSP2) HepG2 Assay for frog Estrogen Receptor (ER) (AID 2283821).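 Also: hits raise reporter mRNA above DMSO baseline so potency means agonist or activator.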 In a few lines:
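Gain-of-signal mRNA reporter assay, HepG2 human liver cells, 24 h dosing; transcripts read by fluorescent RT-PCR fragment analysis, DMSO as negative control.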

Assay [15] has as its target Retinoic acid receptor RXR-alpha (Homo sapiens) (UniProt P19793). Briefly: ATG_RXRa_TRANS: Attagene TRANS-FACTORIAL HepG2 Assay for human Retinoid X Receptor alpha (RXRa) (AID 2283012). In a few lines: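 TRANS format reporting activity of exogenous RXRa-Gal4 chimera in transiently transfected HepG2, 24 h exposure. Reporter transcripts quantified by RT-PCR with capillary electrophoresis, with gain of signal scored relative to DMSO.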

Sequence of UniProt P51449 (P51449 whole entry, looked up, the tested form may be a part): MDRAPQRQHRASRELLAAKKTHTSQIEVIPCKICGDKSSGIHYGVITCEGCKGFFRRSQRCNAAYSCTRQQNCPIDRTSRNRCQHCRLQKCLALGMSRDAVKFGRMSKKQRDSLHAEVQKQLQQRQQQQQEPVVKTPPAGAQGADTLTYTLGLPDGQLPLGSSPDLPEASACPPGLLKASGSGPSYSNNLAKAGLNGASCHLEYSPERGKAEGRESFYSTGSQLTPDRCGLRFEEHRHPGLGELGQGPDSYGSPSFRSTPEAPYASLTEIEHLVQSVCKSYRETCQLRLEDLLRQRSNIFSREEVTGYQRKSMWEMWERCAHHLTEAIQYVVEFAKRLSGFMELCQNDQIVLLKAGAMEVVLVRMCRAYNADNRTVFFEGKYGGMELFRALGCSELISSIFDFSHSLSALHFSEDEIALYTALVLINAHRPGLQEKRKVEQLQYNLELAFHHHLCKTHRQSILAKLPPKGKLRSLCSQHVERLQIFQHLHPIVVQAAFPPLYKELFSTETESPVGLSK
Sequence of human Retinoic Acid Receptor gamma (RARg), RARG (gene 5916) (P13631 whole entry, looked up, the tested form may be a part): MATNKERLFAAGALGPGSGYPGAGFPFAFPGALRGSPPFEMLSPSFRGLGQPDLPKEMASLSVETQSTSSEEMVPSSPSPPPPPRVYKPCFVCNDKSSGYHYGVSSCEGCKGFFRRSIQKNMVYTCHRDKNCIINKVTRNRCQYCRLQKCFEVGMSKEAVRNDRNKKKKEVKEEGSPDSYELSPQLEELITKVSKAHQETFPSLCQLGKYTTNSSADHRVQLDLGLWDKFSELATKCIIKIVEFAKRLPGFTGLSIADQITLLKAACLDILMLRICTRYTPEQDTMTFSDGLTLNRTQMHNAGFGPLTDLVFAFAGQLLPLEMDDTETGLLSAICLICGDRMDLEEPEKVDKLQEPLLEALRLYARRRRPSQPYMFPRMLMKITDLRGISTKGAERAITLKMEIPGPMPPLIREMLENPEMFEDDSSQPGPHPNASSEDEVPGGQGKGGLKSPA
Sequence of UniProt O75469 (O75469 whole entry, looked up, the tested form may be a part): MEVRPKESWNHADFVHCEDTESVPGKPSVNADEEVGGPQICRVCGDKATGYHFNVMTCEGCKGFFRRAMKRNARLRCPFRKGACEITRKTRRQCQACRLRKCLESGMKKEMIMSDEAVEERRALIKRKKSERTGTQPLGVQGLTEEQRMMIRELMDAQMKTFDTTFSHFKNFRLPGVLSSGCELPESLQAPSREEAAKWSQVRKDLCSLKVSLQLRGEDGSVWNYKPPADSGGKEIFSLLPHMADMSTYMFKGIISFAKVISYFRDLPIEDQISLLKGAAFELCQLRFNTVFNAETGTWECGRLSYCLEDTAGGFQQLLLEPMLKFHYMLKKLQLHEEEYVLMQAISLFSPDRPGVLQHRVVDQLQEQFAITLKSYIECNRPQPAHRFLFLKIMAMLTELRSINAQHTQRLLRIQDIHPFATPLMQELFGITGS
Sequence of UniProt P10827 (P10827 whole entry, looked up, the tested form may be a part): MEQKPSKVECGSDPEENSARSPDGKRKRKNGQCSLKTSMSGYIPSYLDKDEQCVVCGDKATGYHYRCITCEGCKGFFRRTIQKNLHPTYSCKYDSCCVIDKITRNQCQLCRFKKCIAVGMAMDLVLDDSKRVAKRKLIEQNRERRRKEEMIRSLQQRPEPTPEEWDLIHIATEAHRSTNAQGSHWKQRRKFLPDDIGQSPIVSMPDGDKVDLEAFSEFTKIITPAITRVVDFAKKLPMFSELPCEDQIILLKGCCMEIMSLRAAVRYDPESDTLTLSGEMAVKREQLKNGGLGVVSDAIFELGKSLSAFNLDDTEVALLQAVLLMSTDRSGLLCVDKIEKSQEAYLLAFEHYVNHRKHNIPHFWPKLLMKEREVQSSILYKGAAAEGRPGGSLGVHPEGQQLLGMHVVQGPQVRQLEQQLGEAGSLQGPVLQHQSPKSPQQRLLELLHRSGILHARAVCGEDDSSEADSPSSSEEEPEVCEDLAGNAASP
Sequence of UniProt P04637 (P04637 whole entry, looked up): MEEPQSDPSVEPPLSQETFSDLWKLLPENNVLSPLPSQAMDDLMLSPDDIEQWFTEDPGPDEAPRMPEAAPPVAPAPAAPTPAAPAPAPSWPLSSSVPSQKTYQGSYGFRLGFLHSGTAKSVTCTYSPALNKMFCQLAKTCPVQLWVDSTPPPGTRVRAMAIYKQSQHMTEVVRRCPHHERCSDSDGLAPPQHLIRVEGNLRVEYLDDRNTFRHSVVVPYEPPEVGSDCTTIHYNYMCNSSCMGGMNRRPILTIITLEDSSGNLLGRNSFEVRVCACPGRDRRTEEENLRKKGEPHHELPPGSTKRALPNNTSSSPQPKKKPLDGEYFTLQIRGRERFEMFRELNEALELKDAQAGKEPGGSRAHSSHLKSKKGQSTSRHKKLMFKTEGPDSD
Sequence of UniProt Q92753 (Q92753 whole entry, looked up, the tested form may be a part): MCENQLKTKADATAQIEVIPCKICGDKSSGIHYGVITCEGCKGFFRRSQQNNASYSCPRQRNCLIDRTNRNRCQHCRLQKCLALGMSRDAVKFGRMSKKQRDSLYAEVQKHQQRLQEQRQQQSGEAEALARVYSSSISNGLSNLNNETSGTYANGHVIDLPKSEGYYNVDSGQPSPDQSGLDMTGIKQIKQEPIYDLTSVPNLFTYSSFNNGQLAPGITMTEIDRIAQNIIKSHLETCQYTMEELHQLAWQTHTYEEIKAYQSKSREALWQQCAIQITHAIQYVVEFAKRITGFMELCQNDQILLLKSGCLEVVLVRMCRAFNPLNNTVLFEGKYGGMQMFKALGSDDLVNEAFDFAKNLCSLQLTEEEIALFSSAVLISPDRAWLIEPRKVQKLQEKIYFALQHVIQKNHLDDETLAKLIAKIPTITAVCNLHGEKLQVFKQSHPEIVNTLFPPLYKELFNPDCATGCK
Sequence of UniProt P28702 (P28702 whole entry, looked up, the tested form may be a part): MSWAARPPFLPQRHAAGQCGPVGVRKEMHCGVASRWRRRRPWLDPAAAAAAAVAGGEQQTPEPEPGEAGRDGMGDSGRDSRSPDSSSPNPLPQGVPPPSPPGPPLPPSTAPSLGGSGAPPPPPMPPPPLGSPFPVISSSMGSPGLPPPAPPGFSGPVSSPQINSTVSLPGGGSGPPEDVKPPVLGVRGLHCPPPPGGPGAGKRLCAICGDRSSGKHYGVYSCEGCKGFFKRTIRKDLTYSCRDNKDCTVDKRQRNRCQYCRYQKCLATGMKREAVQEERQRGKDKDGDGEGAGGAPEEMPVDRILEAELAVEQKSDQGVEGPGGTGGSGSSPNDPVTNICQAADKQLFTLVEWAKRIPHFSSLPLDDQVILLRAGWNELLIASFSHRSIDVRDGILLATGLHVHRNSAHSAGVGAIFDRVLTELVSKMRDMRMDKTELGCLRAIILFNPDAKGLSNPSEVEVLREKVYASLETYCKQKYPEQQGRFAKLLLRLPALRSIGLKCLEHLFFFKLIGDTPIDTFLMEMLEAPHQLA
Sequence of UniProt Q92731 (Q92731 whole entry, looked up, the tested form may be a part): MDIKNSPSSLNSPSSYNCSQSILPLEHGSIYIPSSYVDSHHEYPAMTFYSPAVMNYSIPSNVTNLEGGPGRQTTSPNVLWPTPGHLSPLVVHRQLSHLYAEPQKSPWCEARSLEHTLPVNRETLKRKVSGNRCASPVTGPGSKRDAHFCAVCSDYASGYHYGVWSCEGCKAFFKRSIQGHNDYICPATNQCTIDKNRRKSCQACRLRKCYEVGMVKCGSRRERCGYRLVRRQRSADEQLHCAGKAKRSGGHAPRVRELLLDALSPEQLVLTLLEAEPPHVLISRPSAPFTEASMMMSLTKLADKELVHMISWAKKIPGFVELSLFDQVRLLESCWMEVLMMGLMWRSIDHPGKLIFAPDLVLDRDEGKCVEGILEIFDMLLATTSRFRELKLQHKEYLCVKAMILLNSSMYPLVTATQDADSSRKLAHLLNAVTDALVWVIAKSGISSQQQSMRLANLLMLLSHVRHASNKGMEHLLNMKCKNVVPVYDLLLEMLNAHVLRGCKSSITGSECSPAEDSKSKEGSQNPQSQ
Sequence of UniProt P10275 (P10275 whole entry, looked up): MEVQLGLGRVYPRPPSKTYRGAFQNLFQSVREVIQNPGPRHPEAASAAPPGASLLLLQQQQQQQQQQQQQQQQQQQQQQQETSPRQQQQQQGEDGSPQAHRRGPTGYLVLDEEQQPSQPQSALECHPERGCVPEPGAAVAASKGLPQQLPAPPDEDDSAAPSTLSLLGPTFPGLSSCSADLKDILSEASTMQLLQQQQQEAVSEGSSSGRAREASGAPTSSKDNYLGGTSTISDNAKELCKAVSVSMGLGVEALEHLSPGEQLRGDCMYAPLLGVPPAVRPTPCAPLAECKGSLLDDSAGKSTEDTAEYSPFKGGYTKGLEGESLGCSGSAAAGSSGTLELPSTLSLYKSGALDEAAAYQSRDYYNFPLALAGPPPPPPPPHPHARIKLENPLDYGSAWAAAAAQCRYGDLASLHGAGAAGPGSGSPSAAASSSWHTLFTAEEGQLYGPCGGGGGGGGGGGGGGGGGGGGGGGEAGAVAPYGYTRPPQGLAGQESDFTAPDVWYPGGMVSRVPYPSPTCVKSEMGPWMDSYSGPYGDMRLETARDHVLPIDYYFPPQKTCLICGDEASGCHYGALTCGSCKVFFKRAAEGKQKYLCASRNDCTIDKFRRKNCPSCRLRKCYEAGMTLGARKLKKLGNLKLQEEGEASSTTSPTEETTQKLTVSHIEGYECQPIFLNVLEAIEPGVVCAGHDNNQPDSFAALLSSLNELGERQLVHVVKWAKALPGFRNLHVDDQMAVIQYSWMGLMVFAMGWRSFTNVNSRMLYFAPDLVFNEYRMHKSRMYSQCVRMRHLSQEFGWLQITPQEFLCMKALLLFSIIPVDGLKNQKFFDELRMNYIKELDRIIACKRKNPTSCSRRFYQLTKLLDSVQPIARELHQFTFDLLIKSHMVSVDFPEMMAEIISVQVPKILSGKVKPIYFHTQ

A word on the AC50: it is the concentration at which the activity in the assay is half-maximal. For the molecule `COc1cc(/C=C/C(=O)CC(=O)/C=C/c2ccc(O)c(OC)c2)ccc1O`, the molecule was called inactive in assay [1], in assay [2] and in assay [3]. Further, the AC50 in assay [4] was active: 15.3 µM.

Take `O=CCCCC=O`: the outcome in assay [5] was inactive. In assay [6], the AC50 was active: 80.3 µM.

Turning to `CC(=O)C(C)=CC1C(C)=CCCC1(C)C` (stereo not drawn), the AC50 in assay [7] was active: 27 µM.

For `O=S(=O)(O)c1ccc(N=Nc2c(O)ccc3ccccc23)cc1`, the molecule was called inactive in assay [7].

Take `Nc1ccc2cc(S(=O)(=O)O)cc(O)c2c1N=Nc1ccccc1C(F)(F)F`: the molecule was called inactive in assay [8] and in [9].

Turning to `C#C[C@]1(O)CC[C@H]2[C@@H]3CCC4=CC(=O)CC[C@@H]4[C@H]3CC[C@@]21C`, the result in [8], in assay [11] and in [12] was inactive. Also, the half-maximal activity concentration (AC50) in [10] was active: 14.5 µM; in assay [13] it was active: 23.8 µM; in assay [14] it was active: 0.121 µM.

For `CCCCCCCCCCO[C@@H]1O[C@H](CO)[C@@H](O)[C@H](O)[C@H]1O`, the outcome in assay [15] was inactive.

`O=C1c2ccccc2C(=O)N1SC1CCCCC1`: the outcome in assay [5] was inactive.
